From PubChem BioAssay AID1508642 (National Center for Advancing Translational Sciences (NCATS), 2021) come the findings set out here.

Screen size: about 43,000 compounds; about 200 (0.47%) were called active. Roughly 12% stayed inconclusive and do not appear here. The call rests on the fitted dose curve; in most records, active means well fitted cell-killing curve with a large enough effect; inconclusive means small, poorly fitted or top-dose-only effect, or effect the other way; inactive means flat fitted curve, though single readings scatter. This is one part of the list.
On the % scale 0 is the no-effect control and ±100 the full control effect.

The assay in a line: Cell viability qHTS assay in S16 Pmp22-F2sN cells. Further: nearly all actives have a fitted effect of over 65% in size. The conditions noted are these: S16 Pmp22-F2sN Schwann cells (luciferase reporters placed in the Pmp22 gene) viability, CellTiter-Glo, 24 h; series mostly up to 57.5 µM; activity change, negative = cytotoxicity: at the top concentration. The method, boiled down: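 S16 Schwann cells carrying the Pmp22-F2sN reporter, seeded in 1536-well format, were exposed to library compounds for 24 h at 37C. Viability was read as CellTiter-Glo luminescence after 15 min at room temperature.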
For the compound `Cc1cc(C)c2c(CC(=O)Nc3c(C(=O)Nc4ccc(Cl)cc4)oc4ccccc34)coc2c1`, the “activity change, negative = cytotoxicity” value is inactive: 2.88%. For `CCc1cccc(C)c1NC(=O)CSc1nnc(CC)n2c1cc1occc12`, the “activity change, negative = cytotoxicity” value was inactive: 6.77%.

For the compound `CC(C(=O)NCc1ccccc1F)n1ccc2cc(S(=O)(=O)N3CCCC3)ccc21` (configuration not stated), the “activity change, negative = cytotoxicity” value was inactive: -5.88%. As for `CCOc1ccccc1NC(=O)c1c(NC(=O)c2cccc(C)c2)sc2c1CCCC2`, the “activity change, negative = cytotoxicity” value is inactive: 26.5%. With `CC1CN(C(=O)Nc2ccc(C(=O)NCc3cccc(F)c3)cc2)c2ccccc2S1` (configuration not stated) the figure was inactive: -2.13%. With `O=C(Nc1ccccc1Cl)N1CCC(CN2CCCCC2)CC1` the figure was inactive: 11.1%; with `O=C(Nc1ccc(C(F)(F)F)cc1)C1CCCN(c2cnccn2)C1` (configuration not stated), inactive: -4.72%. Take `COc1ccccc1NC(=O)c1cc2c(=O)oc3ccc(C)cc3c2s1`: the “activity change, negative = cytotoxicity” value is inactive: 6.44%. As for `Cc1ccc(NC(=O)CSc2nc3c(oc4ccccc43)c(=O)n2-c2ccc(F)cc2)c(C)c1`, the “activity change, negative = cytotoxicity” value was inactive: 11.5%.

On to `CCCCOc1ccccc1C(=O)N(Cc1ccc(C)o1)C1CCS(=O)(=O)C1` (configuration not stated), for which the “activity change, negative = cytotoxicity” value is inactive: -15.7%.

As to `O=C(O)CSc1c2c(nc3cc(C(=O)Nc4ccc(F)c(Cl)c4)ccc13)CCC2`, the “activity change, negative = cytotoxicity” value was inactive: -2.43%. Take `COc1ccc(Nc2ncc3c(n2)CCN(Cc2cc(Br)cs2)C3)c(OC)c1`: the “activity change, negative = cytotoxicity” value was inactive: 20.4%. `CC(C)c1ccc(S(=O)(=O)NCc2ccc3c(c2)CCN3C(=O)c2ccccc2)cc1`: the “activity change, negative = cytotoxicity” value was inactive: -8.75%. With `COCCNC(=O)CSc1nc2cc3c(cc2c(=O)n1CCCCCC(=O)NCc1ccc(OC)cc1)OCO3` the figure was inactive: 11.2%; with `COc1ccc(CNC(=O)c2ccc3c(c2)nc2n3CCC(C)C2)c(OC)c1` (configuration not stated), inactive: 9.57%; with `CCOc1ccccc1NC(=O)Cn1nnc2sc(-c3ccccc3)cc2c1=O`, inactive: 11.6%. The same measure for `COCCCNC(=O)CCCCn1c(=O)c2ccccc2n(CC(=O)Nc2ccc(C)cc2C)c1=O`: inactive: 1.77%. With `Cn1nc(-c2ccc(C(=O)Nc3ccc(F)cc3)cc2)c2ccccc2c1=O` the figure was inactive: -18.4%; with `C=Cc1ccc(Cn2nc(-c3ccc(C)c(S(=O)(=O)N(CC)CC)c3)ccc2=O)cc1`, inactive: -20.1%. Regarding `Cc1cccn2c(=O)c3cc(C#N)c(=O)n(-c4nnc(SCc5ccccc5F)s4)c3nc12`, the “activity change, negative = cytotoxicity” value was inactive: -16.2%.

With `Cc1cc(C)c(NC(=O)Cn2c(=O)n(Cc3ccc4c(c3)OCO4)c(=O)c3ccc(C(=O)NC4CCCCC4)cc32)c(C)c1`, the “activity change, negative = cytotoxicity” value was inactive: 6.54%. The same measure for `O=C(NCc1ccccc1F)c1ccc(CN2CC(=O)N3CCCCC3C2=O)cc1` (configuration not stated): inactive: 20.3%; for `CCOC(=O)c1sc2cccc(F)c2c1S(=O)(=O)N1CCN(c2cccc(Cl)c2)CC1`: inactive: -9.68%; for `CCCn1c2ccccc2c2cnn(CC(=O)N3CCC(C)CC3)c(=O)c21`: inactive: 3.06%. `CCc1ccc(CNC(=O)c2cnc3sc4cc(OC)ccc4n3c2=O)cc1`: the “activity change, negative = cytotoxicity” value is inactive: 4.35%. On to `COc1cccc(C(=O)N2c3cc(C)ccc3C(C)(c3ccccc3)CC2(C)C)c1` (configuration not stated), for which the “activity change, negative = cytotoxicity” value was inactive: -4.36%.

Turning to `N#C/C(=C\c1ccc(Cl)cc1)c1nc(-c2cc3ccccc3oc2=O)cs1`, the “activity change, negative = cytotoxicity” value is inactive: -4.99%. The same measure for `CCC(C)NC(=O)Cn1ncc2c([nH]c3ccc(C)cc32)c1=O` (configuration not stated): inactive: 9.53%; for `CCc1cccc(NC(=O)Cn2nc(-c3ccc(OC)cc3)ccc2=O)c1`: inactive: -3.23%. As to `CCOc1ccccc1NC(=O)Cn1c(=O)n(Cc2ccccc2)c(=O)c2c(C)c(C)sc21`, the “activity change, negative = cytotoxicity” value is inactive: 5.85%. For `O=C(Nc1nc2n(n1)C(c1ccccc1)C=C(c1ccccc1)N2)c1ccc(Cl)c([N+](=O)[O-])c1` (configuration not stated), the “activity change, negative = cytotoxicity” value was inactive: -2.35%.

`Cc1cccc(C)c1Nc1sc(C(=O)c2ccccc2)c(N)c1C(=O)Nc1ccc(F)cc1`: the “activity change, negative = cytotoxicity” value was inactive: -22.3%. The same measure for `CC(C)OCCCNC(=O)c1cc2c(-c3ccc(Cl)cc3)nn(C)c2s1`: inactive: -8.23%. For `COc1cc(NC(=O)C2CCCN(S(=O)(=O)c3ccc4c(c3)oc(=O)n4C)C2)c(C(=O)O)cc1OC` (configuration not stated), the “activity change, negative = cytotoxicity” value was inactive: 1.81%.

Regarding `CCCCC(Sc1nc2cc3c(cc2c(=O)n1CCCC(=O)NCc1ccc(OC)cc1)OCO3)C(=O)OCC` (configuration not stated), the “activity change, negative = cytotoxicity” value is inactive: -1.12%. Consider `Cc1ccc(NC(=O)c2c(C)oc3ccc(O)c(CN4CCCCCC4)c23)c(C)c1`, for which the “activity change, negative = cytotoxicity” value is inactive: -12.5%. As to `CCOC(=O)c1[nH]c(C)c(CCC(=O)NCc2ccc(OCC)cc2)c1C`, the “activity change, negative = cytotoxicity” value is inactive: -12%. The same measure for `CCc1cccc(NC(=O)CCS(=O)(=O)c2cc(Br)cc3c2N(C(C)=O)CC3)c1`: inactive: 2.76%; for `COc1cc(OC)cc(C(=O)Nc2ccc3c(c2)N(C2CCCC2)C(=O)c2ccccc2S3)c1`: inactive: 2.3%; for `O=C(NCc1ccccc1Cl)c1cc2ccccc2o1`: inactive: 6%. As to `O=C(CSc1nc2ccccc2nc1Cc1ccccc1)N1CCCCC1`, the “activity change, negative = cytotoxicity” value is inactive: -17.9%. `Cc1cc(C)cc(-n2c(SCC(N)=O)nc3c(oc4ccccc43)c2=O)c1`: the “activity change, negative = cytotoxicity” value was inactive: 3.04%.

As to `CCOc1ccccc1NC(=O)Cn1cnc2sc(C)c(S(=O)(=O)N3CCC(C)CC3)c2c1=O`, the “activity change, negative = cytotoxicity” value was inactive: -0.947%.

In the case of `COc1cccc(Nc2c3c(nc4nncn24)CCC3)c1`, the “activity change, negative = cytotoxicity” value was inactive: -2.69%. With `CCc1ccc(C2CC(=O)Nc3c2c(C)nn3-c2nc(C)cc(C)n2)cc1` (configuration not stated) the figure was inactive: -6.06%; with `CCOc1ccccc1NC(=O)N1CCN(Cc2nc3ccc(C)cc3o2)CC1`, inactive: 13.5%; with `Cc1ccc(C)c(N2CCN(S(=O)(=O)c3c(C)nc4sccn4c3=O)CC2)c1`, inactive: 4.6%.
